Out of some 280,000 compounds screened, about 100 (0.036%) were called active. The shares of active, inactive and inconclusive entries below differ from those in the screen. The call rests on the fitted dose curve; in most records, active means well fitted inhibition curve with a large enough effect in the signal ratio, with a control signal flat (not every such curve was filed as active); inconclusive means small, poorly fitted or top-dose-only effect, or effect the other way, or a change in a side signal; inactive means no such curve, though single readings can be large or run the other way; the % refers to the signal ratio. A potency beside an inconclusive call is a rough fit, not a confirmed value. “Side channel” marks fits to a control or component signal instead of the main read-out.
What follows are compounds tested against Muscleblind-like protein 1 (Homo sapiens) (UniProt Q9NR56) (assay: qHTS Assay for Inhibitors of MBNL1-poly(CUG) RNA binding). Details: TR-FRET MBNL1-His/biotin-(CUG)12 binding, 665/545 ratio; activity change, negative = inhibition: at 57.5 µM (top of the series).
Chain of UniProt Q9NR56 (Q9NR56 whole entry, looked up): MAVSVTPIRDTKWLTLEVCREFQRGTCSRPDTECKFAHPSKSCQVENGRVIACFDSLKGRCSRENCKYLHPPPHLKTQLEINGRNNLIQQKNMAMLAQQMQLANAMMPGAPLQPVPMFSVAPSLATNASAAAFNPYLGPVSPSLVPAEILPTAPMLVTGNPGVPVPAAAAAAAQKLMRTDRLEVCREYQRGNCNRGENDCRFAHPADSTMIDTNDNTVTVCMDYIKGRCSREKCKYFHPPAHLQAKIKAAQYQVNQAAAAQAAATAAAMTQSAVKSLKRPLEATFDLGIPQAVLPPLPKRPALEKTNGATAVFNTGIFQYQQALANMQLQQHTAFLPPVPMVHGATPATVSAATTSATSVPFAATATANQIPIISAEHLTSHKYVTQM
Procedure, shortened: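 TR-FRET between His-tagged MBNL1 and biotin-(CUG)12 RNA, detected with Tb anti-His antibody (0.055 ng/ul) and streptavidin-XL665 (5 nM), 60 min at room temperature. Compounds titrated 92 nM to 58 uM; 665/545 nm ratio normalized to buffer and complex controls.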
`CCN(CC)S(=O)(=O)c1ccc(OCC(=O)NC2CCS(=O)(=O)C2)c([N+](=O)[O-])c1` (stereo not drawn) was tested, and the Potency was inconclusive: 28.2 µM [quencher, side channel, single point].
`CCOC(=O)c1cc2cc([N+](=O)[O-])ccc2oc1=O` was tested, and the Potency was inconclusive: 5.01 µM [quencher, side channel, partial curve].
With `N#CC(C#N)=C1C=CC=CN1/C(=C\c1ccco1)C(=O)c1ccc(Br)cc1` the Potency was inconclusive: 14.1 µM [quencher, side channel, partial curve].
`O=C(c1ccc(F)cc1)N1CCOCC1` was tested, and the “activity change, negative = inhibition” value was inactive: -6.05%.
For `Cc1cccc(-n2c(N)c(C(=O)NCCN3CCOCC3)c3nc4ccccc4nc32)c1`, the Potency was inconclusive: 22.4 µM [quencher, side channel, single point].
With `CC1CC(C)CN(C(=O)CSc2nc(Cc3cccs3)nc3ccccc23)C1` (stereo not drawn) the Potency was inconclusive: 39.8 µM [quencher, side channel, single point].
In the case of `c1cc2c(cnc3cscc32)s1`, the Potency is reported as inconclusive: 20 µM [quencher, partial curve].
In the case of `Cc1ccc(/C=N/Nc2nncc(-c3ccccc3)n2)o1`, the Potency is reported as inconclusive: 3.16 µM [quencher, full curve].
With `CCCc1cc(C(=O)Nc2sc(C)c(CC)c2C#N)no1` the “activity change, negative = inhibition” value was inactive: -15.7%.
`CCN1C(=O)c2cccc3c(S(=O)(=O)NCc4ccccn4)ccc1c23` was tested, and the Potency was inconclusive: 17.8 µM [quencher, partial curve].
With `CCC(C)Nc1nc(C)nc2c1oc1ccccc12` (stereo not drawn) the “activity change, negative = inhibition” value was inactive: 1.44%.
For `COc1ccc(CN(C(=O)c2snc(C(N)=O)c2N)C(C(=O)NC2CCCC2)c2ccc(OC)c(OC)c2)cc1` (stereo not drawn), the Potency was inconclusive: 31.6 µM [quencher, side channel, single point].
With `Cc1onc(-c2ccccc2Cl)c1C(=O)NC(=S)Nc1ccccc1F` the “activity change, negative = inhibition” value was inactive: -0.463%.
With `COc1ccccc1C(=O)Nc1cc2cc(Br)ccc2oc1=O` the Potency was inconclusive: 7.08 µM [quencher, side channel, single point].
`O=C1CSC(=S)N1/N=C/c1ccc(O)c(O)c1O` was tested, and the Potency was inconclusive: 31.6 µM [quencher, side channel, single point].
For `CCCCC(=O)Nc1ccc(C(=O)NNC(=O)CCCOc2ccc(Cl)cc2Cl)cc1`, the Potency was inconclusive: 0.126 µM [quencher, side channel, full curve, poor fit].
`Cc1cc(Nc2ccccc2C(=O)O)n(-c2ccc([N+](=O)[O-])cc2)n1` was tested, and the Potency was inconclusive: 31.6 µM [quencher, single point].
For `Cc1cccc(CCNC(=O)C2CCCN(S(=O)(=O)c3cccc4nsnc34)C2)c1` (stereo not drawn), the Potency was inconclusive: 0.794 µM [quencher, side channel, full curve, poor fit].
On the % scale 0 is the no-effect control and ±100 the full control effect; potency means the concentration at half of the fitted maximal effect; tags describe the fitted curve by direction and shape or compound fluorescence and quenching.
